The campaign covered roughly 420,000 compounds. About 50,000 (12%) were called active. The shares of active, inactive and inconclusive entries below differ from those in the screen. Calls come from the whole dose curve; as a rule, active = well fitted inhibition curve with a large enough effect; inconclusive = small, poorly fitted or top-dose-only effect; inactive = flat fitted curve, though single readings scatter. Potencies of inconclusive entries are left out as doubtful fits.
Assay: qHTS for Inhibitors of human tyrosyl-DNA phosphodiesterase 1 (TDP1): qHTS in cells in presence of CPT; note: nearly all actives have a fitted effect of over 55% in size
Details: chicken DT40 Tdp1-/-;hTDP1 cells + 20 nM CPT, ATP luminescence, 48 h; activity change, negative = growth inhibition: at 46.2 µM (top of the series) unless noted
Method in brief: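 Chicken DT40 Tdp1-/- cells complemented with human TDP1, 400 cells/well, exposed to compounds plus 20 nM camptothecin for at least 48 h at 37 C; viability read as ATP content by CellTiter-Glo luminescence.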
% is set by controls: 0 for no effect and ±100 for the full control effect; potency is the fitted concentration of half-maximal effect; tags give direction and shape of the fitted curve.

Compound	Potency	activity change, negative = growth inhibition
CSc1ccccc1OCc1cc(C(=O)N(C)CCn2nc(C)cc2C)no1	active: 14.6 µM	
CCOC(=O)C(=CNc1cc(C)ccc1C)C(=O)OCC	inconclusive [inhibitor, single point]	
N#CC1(N2CCN(C(=O)c3ccccc3)CC2)CCCCC1		inactive: 3.76%
O=S1(=O)CC(N2CCN(Cc3ccccc3F)CC2)CN1Cc1cn(Cc2cccc(Cl)c2)nn1 (configuration not stated)	inconclusive [inhibitor, single point]	
CCN(CC)S(=O)(=O)c1ccc2oc(SCC(=O)Nc3cc(C)on3)nc2c1	active: 0.651 µM	
CCOc1ccc(C(=O)OC(C)C(=O)N2CCN(Cc3ccccc3)CC2)cc1 (configuration not stated)	active: 16.4 µM	
CCCn1c(CCCNC(=O)c2ccccc2OC)nc2ccccc21	inconclusive [inhibitor, single point]	
C=CCNC(=O)/C(C#N)=C/c1ccc(OS(=O)(=O)c2ccc(C)cc2)c(OC)c1	inconclusive [inhibitor, single point]	
CCOC(=O)C1CCCN(C(=O)c2nn(-c3ccc(C)cc3)c(=O)c3c2c2ccccc2n3C)C1 (configuration not stated)	inconclusive [inhibitor, partial curve]	
CC(=O)NCCc1ccc(S(=O)(=O)Nc2ccc(C)c(S(=O)(=O)N3CCOCC3)c2)cc1		inactive: -15.7%
CCOCCc1nnc(NC(=O)Cc2c(F)cccc2Cl)s1		inactive: -8.79%
CCOC(=O)c1ccc(NC(=O)CSCc2ccco2)cc1	inconclusive [inhibitor, partial curve]	
Cc1cc(C)cc(NS(=O)(=O)c2ccc(NC(=O)c3ccccc3C(=O)O)cc2)c1		inactive: 2.27%
O=C(NCc1ccccc1)/C(=C/c1ccc(OC(F)F)cc1)c1ccccc1	inconclusive [inhibitor, single point]	
CC(=O)CCCCn1c(=O)c2c(ncn2C)n(C)c1=O	inactive	
CN(c1ccc(OCC(=O)OCC(=O)Nc2ccc(OC(F)F)cc2)cc1)S(=O)(=O)c1cccs1		inactive: -5.87%
Cc1ccccc1NNC(N)=S	active: 20.6 µM	
O=C(CSc1nccc(-c2ccc(Br)cc2)n1)NCCc1ccccc1	inconclusive [inhibitor, single point]	
COC(=O)N1CCCCC1c1cc(C(=O)NCc2ccc(Cl)c(Cl)c2)no1 (configuration not stated)	inconclusive [inhibitor, single point]	
CCCCOC(=O)C1CCC[C@@H](C)N1 (some centres not stated)		inactive: -13.8%
Cc1ccc(C2CCN(C(=O)Nc3ccc(F)cc3)C2)cc1 (configuration not stated)		inactive: -19.6%
CS(=O)(=O)N(CC(=O)N1CCCC1)c1ccc(Cl)cc1		inactive: 6.09%
CN1C(=O)OC(C)(C)C1=O		inactive: 1.4% [at 21.1 µM]
O=[N+]([O-])c1ccc2cn(C3OC(CO)C(O)C3O)nc2c1 (configuration not stated)		inconclusive: -31.2% [inhibitor]

Compound	Potency	activity change, negative = growth inhibition
COC(=O)/C(=C\Nc1ccc(Cl)cc1Cl)NC(=O)c1ccc(Cl)cc1Cl	active: 20.6 µM	
COc1ccc(CCN2C(=O)c3[nH]nc(-c4ccccc4O)c3C2c2ccccc2)cc1OC (configuration not stated)	active: 18.4 µM	
CCCCN(C)CCCNC(=O)Cn1ncc2c3ccccc3n(Cc3cc(C)ccc3C)c2c1=O	active: 2.59 µM	
CCOc1ccc(CNS(=O)(=O)c2ccc(-c3coc(C)n3)cc2)cc1OC	active: 7.31 µM	
CCN(Cc1ccccc1)C(=O)c1sc2nc3n(c(=O)c2c1C)CCCC3	inconclusive [inhibitor, single point]	
CCOC(=O)N1CCN(C(=O)c2oc3ccc(S(=O)(=O)N4CC(C)CC(C)C4)cc3c2C)CC1 (configuration not stated)	inconclusive [inhibitor, partial curve, poor fit]	
CCN(CC)CCCNC(=O)c1nn(-c2ccc(C)cc2)c(=O)c2c1c1ccccc1n2C	inconclusive [inhibitor, single point]	
Cc1ccc(C(=O)N2CC(=O)Nc3ccc(F)cc3C2c2ccc(F)cc2)cc1 (configuration not stated)	inconclusive [inhibitor, partial curve, poor fit]	
OC(COC(c1ccccc1)c1ccccc1)CN1CCCCC1 (configuration not stated)		inactive: -3.17%
COc1cccc(C2=NC(C)(C)NC(c3ccccc3O)C2)c1 (configuration not stated)	active: 14.6 µM	
Cc1cc(O)c(NC(=O)c2cc([N+](=O)[O-])ccc2Cl)cc1C	inconclusive [inhibitor, single point]	
CC(=O)Nc1cc(C)nn1-c1nc(C)cc(C)n1		inactive: -6.33%
C=CCOc1ccc(CN(C)C(=O)c2ccc(CNS(=O)(=O)c3ccc(C)c(C)c3)cc2)cc1	inconclusive [inhibitor, single point]	
CC(C)NC(=O)CSc1nc2ccccc2n1CC(=O)N(C(C)C)C(C)C	inconclusive [inhibitor, single point]	
CCCCNC(=O)C1(C)CCCCN1C(=O)c1ccc2c(c1)CCO2 (configuration not stated)		inactive: -19.2%
CCC(=O)N1c2ccc(S(=O)(=O)CCC(=O)Nc3ccc(Br)c(C)c3)cc2CC1C (configuration not stated)	active: 18.4 µM	
COc1ccccc1CNC(=O)c1cc2c(s1)-c1ccccc1OC2	inconclusive [inhibitor, single point]	
CCCn1c(=O)n(C)c(=O)c2c(SCC(=O)NCc3ccco3)nc(C3CC3)nc21	inconclusive [inhibitor, single point]	
CCO[C@@H]1OC(C(=O)NCc2ccccc2)=C[C@H](c2cn(C(C)=O)c3ccccc23)[C@H]1CCCO	inconclusive [inhibitor, single point]	
COc1ccccc1N(Cc1ccccc1)S(=O)(=O)c1cccc(C(=O)Nc2cccc(C)n2)c1	inconclusive [inhibitor, single point]	
COc1ccc(C2(CNC(=O)c3ccc(OC)c([N+](=O)[O-])c3)CCCCC2)cc1OC	inconclusive [inhibitor, single point]	
COc1ccccc1OCCC(=O)NNC(=O)c1ccccc1F		inactive: 7.21%
COc1ccc(S(=O)(=O)N2C[C@H]3CON(C)[C@H]3C[C@H]2c2ccc(-c3cc4ccccc4o3)cc2)cc1	inconclusive [inhibitor, full curve]	

Reference: PubChem BioAssay AID686979 (National Center for Advancing Translational Sciences (NCATS), 2013)
